The list shows a part of the results. The full chains were built here from the parent and the listed change. Inactive controls read about 0.05.
B1: TEV protease; numbered along this chain (parent)
chain: MGESLFKGPRDYNPISSSICHLTNESDGHTTSLYGIGFGPFIITNKHLFRRNNGTLVVQSLHGVFKVKDTTTLQQHLVDGRDMIIIRMPKDFPPFPQKLKFREPQREERICLVTTNFQTKSMSSMVSDTSCTFPSGDGIFWKHWIQTKDGQCGSPLVSTRDGFIVGIHSASNFTNTNNYFTSVPKNFMELLTNQEAQQWVSGWRLNADSVLWGGHKVFMVKPEEPFQPVKEATQL

Variants of: B1
Test: raw area under fraction-flipped curve 0-4 h after induction (AUC4h, not background-subtracted), DNA-recorder readout of cleavage of the substrate (dimensionless); higher = more cleavage of the substrate by the protease variant
Settings: temperature: 34 °C; time window: 0-4 h after rhamnose induction
Method: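 In vivo DNA recorder in E. coli TOP10(DE3) ΔrhaA at 34 °C. Each TEVp single-site mutant (parent TEVp 0) is paired with a single-site variant of the 7-mer TEVs (canonical ENLYFQ|S). The substrate sits between flexible linkers in a Bxb1-sfGFP-TEVs-SsrA fusion, so cleavage stabilises Bxb1 and speeds flipping of a recombination array, read by NGS. The value is the raw area under the fraction-flipped curve over 0-4 h after rhamnose induction (AUC4h), with ≥20 reads per time point. It is not background-subtracted; inactive controls average about 0.047.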
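Further: Bxb1 expression induced with 0.2% (w/v) L-rhamnose at OD600 near 0.5, cultures sampled hourly, flipped fraction per protease–substrate barcode pair counted by paired-end Illumina sequencing.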

Variant: MGESLFKGPRDYNPISSSICHLTNESDGHTTSLYGIGFGPFIITNKHLFRRNNGTLVVQSLHGVFKVKDTTTLQQHLVDGRDMIIIRMPKDFPPFPQKLKFREPLREERICLVTTNFQTKSMSSMVSDTSCTFPSGDGIFWKHWIQTKDGQCGSPLVSTRDGFIVGIHSASNFTNTNNYFTSVPKNFMELLTNQEAQQWVSGWRLNADSVLWGGHKVFMVKPEEPFQPVKEATQL [Q105L]
- area with substrate EALYFQS: 0.111
- area with substrate ECLYFQS: 0.109
- area with substrate EHLYFQS: 0.184
- area with substrate EKLYFQS: 0.0953
- area with substrate ELLYFQS: 0.0489
- area with substrate EMLYFQS: 0.118
- area with substrate EQLYFQS: 0.06
- area with substrate ERLYFQS: 0.104
- area with substrate ETLYFQS: 0.129
- area with substrate EWLYFQS: 0.102

Variant: MGESLFKGPRDYNPISSSICHLTNESDGHTTSLYGIGFGPFIITNKHLFRRNNGTLVVQSLHGVFKVKDTTTLQQHLVDGRDMIIIRMPKDFPPFPQKLKFREPQREERICLVTYNFQTKSMSSMVSDTSCTFPSGDGIFWKHWIQTKDGQCGSPLVSTRDGFIVGIHSASNFTNTNNYFTSVPKNFMELLTNQEAQQWVSGWRLNADSVLWGGHKVFMVKPEEPFQPVKEATQL [T115Y]
- area with substrate EALYFQS: 0.126
- area with substrate ECLYFQS: 0.0458
- area with substrate EGLYFQS: 0.106
- area with substrate EILYFQS: 0.13
- area with substrate EKLYFQS: 0.136
- area with substrate ELLYFQS: 0.0743
- area with substrate EMLYFQS: 0.13
- area with substrate EPLYFQS: 0.0896
- area with substrate EQLYFQS: 0.119
- area with substrate ERLYFQS: 0.0948
- area with substrate ESLYFQS: 0.0792
- area with substrate ETLYFQS: 0.126
- area with substrate EVLYFQS: 0.111

Variant: MGESLFKGPRDYNPISSSICHLTNESDGHTTSLYGIGFGPFIITNKHLFRRNNGTLVVQSLHGVFKVKDTTTLQQHLVDGRDMIIIRMPKDFPPFPQKLKFREPQREERICLVRTNFQTKSMSSMVSDTSCTFPSGDGIFWKHWIQTKDGQCGSPLVSTRDGFIVGIHSASNFTNTNNYFTSVPKNFMELLTNQEAQQWVSGWRLNADSVLWGGHKVFMVKPEEPFQPVKEATQL [T114R]
- area with substrate EALYFQS: 0.135
- area with substrate ECLYFQS: 0.122
- area with substrate EILYFQS: 0.091
- area with substrate EKLYFQS: 0.127
- area with substrate ELLYFQS: 0.0968
- area with substrate EMLYFQS: 0.118
- area with substrate ERLYFQS: 0.113
- area with substrate ESLYFQS: 0.112
- area with substrate ETLYFQS: 0.141
- area with substrate EVLYFQS: 0.111
- area with substrate EWLYFQS: 0.0917

Variant: MGESLFKGPRDYNPISSSICHLTNESDGHTTSLYGIGFGPFIITNKHLFRRNNGTLVVQSLHGVFKVKDTTTLQQHLVDGRDMIIIRMPKDFPPFPQKLKFREPQRLERICLVTTNFQTKSMSSMVSDTSCTFPSGDGIFWKHWIQTKDGQCGSPLVSTRDGFIVGIHSASNFTNTNNYFTSVPKNFMELLTNQEAQQWVSGWRLNADSVLWGGHKVFMVKPEEPFQPVKEATQL [E107L]
- area with substrate EALYFQS: 0.125
- area with substrate EELYFQS: 0.0999
- area with substrate EHLYFQS: 0.0887
- area with substrate EQLYFQS: 0.109
- area with substrate ERLYFQS: 0.066
- area with substrate ESLYFQS: 0.0906
- area with substrate EVLYFQS: 0.0839

Variant: MGESLFKGPRDYNPISSSICHLTNESDGHTTSLYGIGFGPFIITNKHLFRRNNGTLVVQSLHGVFKVKDTTTLQQHLVDGRDMIIIRMPKDFPPFPQKLKFREPQREERICLSTTNFQTKSMSSMVSDTSCTFPSGDGIFWKHWIQTKDGQCGSPLVSTRDGFIVGIHSASNFTNTNNYFTSVPKNFMELLTNQEAQQWVSGWRLNADSVLWGGHKVFMVKPEEPFQPVKEATQL [V113S]
- area with substrate EALYFQS: 0.0719
- area with substrate EDLYFQS: 0.0799
- area with substrate EELYFQS: 0.0829
- area with substrate EGLYFQS: 0.0657
- area with substrate EILYFQS: 0.0732
- area with substrate EKLYFQS: 0.0897
- area with substrate EMLYFQS: 0.0566
- area with substrate EPLYFQS: 0.072
- area with substrate ERLYFQS: 0.0696
- area with substrate ESLYFQS: 0.0735
- area with substrate EVLYFQS: 0.0698
- area with substrate EWLYFQS: 0.0598
- area with substrate EYLYFQS: 0.0606

Variant: MGESLFKGPRDYNPISSSICHLTNESDGHTTSLYGIGFGPFIITNKHLFRRNNGTLVVQSLHGVFKVKDTTTLQQHLVDGRDMIIIRMPKDFPPFPQKLKFREPQREERICLMTTNFQTKSMSSMVSDTSCTFPSGDGIFWKHWIQTKDGQCGSPLVSTRDGFIVGIHSASNFTNTNNYFTSVPKNFMELLTNQEAQQWVSGWRLNADSVLWGGHKVFMVKPEEPFQPVKEATQL [V113M]
- area with substrate EALYFQS: 0.0947
- area with substrate EFLYFQS: 0.0881
- area with substrate EGLYFQS: 0.0961
- area with substrate EHLYFQS: 0.113
- area with substrate EILYFQS: 0.0894
- area with substrate EKLYFQS: 0.112
- area with substrate ELLYFQS: 0.0791
- area with substrate EMLYFQS: 0.102
- area with substrate EQLYFQS: 0.11
- area with substrate ERLYFQS: 0.0926
- area with substrate ESLYFQS: 0.094
- area with substrate ETLYFQS: 0.0999
- area with substrate EYLYFQS: 0.101

Variant: MGESLFKGPRDYNPISSSICHLTNESDGHTTSLYGIGFGPFIITNKHLFRRNNGTLVVQSLHGVFKVKDTTTLQQHLVDGRDMIIIRMPKDFPPFPQKLKFREPQREERNCLVTTNFQTKSMSSMVSDTSCTFPSGDGIFWKHWIQTKDGQCGSPLVSTRDGFIVGIHSASNFTNTNNYFTSVPKNFMELLTNQEAQQWVSGWRLNADSVLWGGHKVFMVKPEEPFQPVKEATQL [I110N]
- area with substrate EALYFQS: 0.0614
- area with substrate ECLYFQS: 0.0615
- area with substrate EELYFQS: 0.0386
- area with substrate EGLYFQS: 0.0526
- area with substrate EHLYFQS: 0.0547
- area with substrate EILYFQS: 0.047
- area with substrate EKLYFQS: 0.051
- area with substrate ELLYFQS: 0.0844
- area with substrate EPLYFQS: 0.0573
- area with substrate EQLYFQS: 0.0565
- area with substrate ETLYFQS: 0.0536
- area with substrate EVLYFQS: 0.0477
- area with substrate EYLYFQS: 0.0431

Variant: MGESLFKGPRDYNPISSSICHLTNESDGHTTSLYGIGFGPFIITNKHLFRRNNGTLVVQSLHGVFKVKDTTTLQQHLVDGRDMIIIRMPKDFPPFPQKLKFREPQREERKCLVTTNFQTKSMSSMVSDTSCTFPSGDGIFWKHWIQTKDGQCGSPLVSTRDGFIVGIHSASNFTNTNNYFTSVPKNFMELLTNQEAQQWVSGWRLNADSVLWGGHKVFMVKPEEPFQPVKEATQL [I110K]
- area with substrate EALYFQS: 0.0573
- area with substrate ECLYFQS: 0.0481
- area with substrate EELYFQS: 0.0478
- area with substrate EFLYFQS: 0.0234
- area with substrate EGLYFQS: 0.0633
- area with substrate EHLYFQS: 0.0559
- area with substrate EKLYFQS: 0.0601
- area with substrate ELLYFQS: 0.046
- area with substrate EMLYFQS: 0.0499
- area with substrate EPLYFQS: 0.0567
- area with substrate EQLYFQS: 0.0442
- area with substrate ERLYFQS: 0.12
- area with substrate ESLYFQS: 0.0543
- area with substrate EWLYFQS: 0.0559

Variant: MGESLFKGPRDYNPISSSICHLTNESDGHTTSLYGIGFGPFIITNKHLFRRNNGTLVVQSLHGVFKVKDTTTLQQHLVDGRDMIIIRMPKDFPPFPQKLKFREPQEEERICLVTTNFQTKSMSSMVSDTSCTFPSGDGIFWKHWIQTKDGQCGSPLVSTRDGFIVGIHSASNFTNTNNYFTSVPKNFMELLTNQEAQQWVSGWRLNADSVLWGGHKVFMVKPEEPFQPVKEATQL [R106E]
- area with substrate EALYFQS: 0.0483
- area with substrate ECLYFQS: 0.0989
- area with substrate EDLYFQS: 0.142
- area with substrate EILYFQS: 0.11
- area with substrate EKLYFQS: 0.092
- area with substrate ELLYFQS: 0.089
- area with substrate EMLYFQS: 0.119
- area with substrate EPLYFQS: 0.109
- area with substrate EQLYFQS: 0.132
- area with substrate ERLYFQS: 0.098
- area with substrate ESLYFQS: 0.115
- area with substrate EVLYFQS: 0.0978
- area with substrate EYLYFQS: 0.177
